Data from PubChem BioAssay AID1645887 (National Center for Advancing Translational Sciences (NCATS), 2021).
Several values for one entry are separate records, joined by “and”; a condition that tells them apart may be missing. Equal entries are not always repeated. Hit rate of the full screen: of about 16,000 compounds, about 40 (0.2%) were called active. Not shown: some 1% with an inconclusive outcome. Calls come from the whole dose curve; as a rule, active = well fitted activation curve with a large enough effect; inconclusive = small, poorly fitted or top-dose-only effect, or another doubt; inactive = no such curve, though single readings can be large or run the other way. Some of the results follow.

Biological target: Rap guanine nucleotide exchange factor 4 (Homo sapiens) (UniProt Q8WZA2)
Test: Validation qHTS for agonist of cAMP-regulated guanine nucleotide exchange factor 4 (EPAC2);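 note: exchange makes BODIPY-GDP fluorescence drop when released from Rap1B; series mostly up to about 150 µM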
Conditions: EPAC2 Rap1B BODIPY-GDP exchange, fluorescence; activation: active compounds read high
Procedure, shortened: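 Signal normalized against 6.5 mM cAMP as agonist control. Mix of EPAC2 (100 nM), RAP1B-BODIPY-GDP (250 nM) and GDP (50 uM) was read kinetically at 480/540 nm, every 5 min over 30 min, after 5 min room-temperature incubation with compound.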
% is set by controls: 0 for no effect and ±100 for the full control effect.

Sequence of UniProt Q8WZA2 (Q8WZA2 whole entry, looked up): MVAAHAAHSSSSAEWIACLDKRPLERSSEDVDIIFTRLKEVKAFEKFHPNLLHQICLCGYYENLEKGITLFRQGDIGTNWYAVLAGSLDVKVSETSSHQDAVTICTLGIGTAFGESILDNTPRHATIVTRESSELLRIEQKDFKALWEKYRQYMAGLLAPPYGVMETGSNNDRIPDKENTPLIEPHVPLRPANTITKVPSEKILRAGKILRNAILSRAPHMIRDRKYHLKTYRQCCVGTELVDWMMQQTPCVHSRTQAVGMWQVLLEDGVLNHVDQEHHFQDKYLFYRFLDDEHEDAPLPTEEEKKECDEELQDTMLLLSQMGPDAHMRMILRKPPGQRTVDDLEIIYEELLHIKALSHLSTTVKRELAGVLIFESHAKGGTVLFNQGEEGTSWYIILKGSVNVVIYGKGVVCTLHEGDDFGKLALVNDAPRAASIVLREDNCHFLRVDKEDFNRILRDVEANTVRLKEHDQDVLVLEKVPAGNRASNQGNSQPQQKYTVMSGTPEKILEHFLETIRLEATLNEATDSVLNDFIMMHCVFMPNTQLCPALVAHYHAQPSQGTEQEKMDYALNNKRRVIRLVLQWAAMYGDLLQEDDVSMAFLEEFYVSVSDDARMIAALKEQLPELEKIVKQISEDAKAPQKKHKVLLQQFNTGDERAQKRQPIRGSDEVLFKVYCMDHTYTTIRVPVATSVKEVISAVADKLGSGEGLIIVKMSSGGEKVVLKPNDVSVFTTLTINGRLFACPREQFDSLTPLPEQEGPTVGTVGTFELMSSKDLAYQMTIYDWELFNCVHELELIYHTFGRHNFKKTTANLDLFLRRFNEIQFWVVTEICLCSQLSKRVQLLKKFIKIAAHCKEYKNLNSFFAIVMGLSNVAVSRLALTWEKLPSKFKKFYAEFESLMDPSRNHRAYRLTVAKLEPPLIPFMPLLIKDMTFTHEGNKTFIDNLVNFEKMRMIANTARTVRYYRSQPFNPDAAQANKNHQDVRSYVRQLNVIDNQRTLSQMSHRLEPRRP

activation, inactive:
O=C(O)[C@H]1CN(CCCP(=O)(O)O)CCN1 -7.58% and 2.42%
COc1ccc2[nH]c3c(c2c1)CCNC3=O -30.7%
COC(=O)[C@@H](CC(C)C)N(Cc1ccccc1)S(=O)(=O)N(Cc1ccccc1)[C@@H](CC(C)C)C(=O)OC -16.6%
CC(=O)NCCNc1nc(-c2ccc3c(c2)OCO3)nc2ccccc12 -5.7%
Cc1nc2cnc(N3CCOCC3)nc2n(Cc2ccc(F)cc2)c1=O -2.06%
COCC(=O)N1CCC[C@@]2(CCN(c3ncccn3)C2)C1 -19.3%
CC(C)[C@H]1CC[C@@H](C)C[C@H]1O 5.12%
COc1ccc(Oc2ncc3nc(CCc4ccccc4)c(=O)n(C)c3n2)cc1 -20.2%
CCOc1cccc(CN2CCC(n3cc(C(=O)N4CCCCC4)nn3)CC2)c1O -17.3%
O=C1NCCN1c1ncc([N+](=O)[O-])s1 8.92%
O=C(NCC1Cc2cccc(-c3cnccn3)c2O1)c1ccc(F)c(Cl)c1 (stereo not given) -9.54%
C[Se]CC[C@H](N)C(=O)O -5.06%
O=C(/C=C(\O)c1ccccc1)c1ccccc1O 7.76%
COc1ccc(-c2nc3cc(C)ccc3cc2CN(C(=O)c2cc(C)nn2C)C2CC2)cc1OC 1.72%
O=C(O)C1=C[C@@H](O)[C@@H](O)[C@H](O)C1 0.761%
O=S(=O)(c1ccccc1)N1CCC2(CCN(Cc3nccs3)CC2)CC1 -0.608%
C1N2CN3CN1CN(C2)C3 -5.37% and -18.9%
CCN(CC)CCNC(=O)c1cnn(-c2nccc(-c3cc4ccccc4o3)n2)c1C -25.5%
O=C(c1cccc(F)c1)N1CCC2(CCCN(Cc3ccccc3)C2)CC1 -5.42%
CCOC(=O)c1c(C)[nH]c2ccc3c(c12)CN1CCc2cc(OC)ccc2[C@@H]1O3 -14.1%
O=C(O)C1CCNCC1 -5.44%
NC(N)=NN=Cc1c(Cl)cccc1Cl -15.5%
Cc1ncc2c(c1CNC(=O)c1ccc3c(c1)OCO3)CCN(C(=O)c1cnsn1)C2 -11.5%
Cc1cccc(CNc2ncncc2-c2ccc(C(=O)N(C)C)cc2)c1 -6.06%
CC1(C)CCC(NC(=O)[C@@H](N)CCC(=O)O)CC1 -10.2% and -7.65%
CS(=O)(=O)N1CCC2(CCN(c3ccncc3)CC2)CC1 -6.4%
NCCn1oc(=O)[nH]c1=O -0.174%
Nc1ncnc2c1ncn2C1CC(O)C(CO)O1 (stereo not given) -9.28% and -0.635%
COCCn1c(=O)c(-c2ccc(F)cc2)nc2cnc(Nc3cccc(OC)c3)nc21 6.42%
C[C@@]1(C(=O)O)NCCc2cc(O)c(O)cc21 -24.9%
CCCCCCCC/C=C\C/C=C\C/C=C\CCCC(=O)NCCO -31.9%
COC(=O)c1ccc(CN2CCC3(CCC(CNC(=O)c4ccco4)O3)CC2)cc1 (stereo not given) -8.93%
CN(C)C=Nc1c(I)cc(I)c(CCC(=O)O)c1I -2.85%
CC(C)NC[C@H](O)c1ccc(NS(C)(=O)=O)cc1 -12.8%
O=C(O)c1c(C(=O)O)c2ccccc2[nH]c1=O 12%
CC(=O)N1CCC2(CCN(Cc3ccccc3)CC2)CC1 -10.1%
Cc1cc(C)nc(S[C@@H]2C[C@@H](C(=O)N3CCCN(C)CC3)N(Cc3cc(F)ccc3F)C2)n1 -5.45%
CC=C1C2C=C(C)CC1(N)c1ccc(=O)[nH]c1C2 (stereo not given) 1.46%
COCCNc1nc(-c2ccc(C(=O)N(C)C)cc2)nc2ccccc12 -13.1%
COc1cc(O)c(C(=O)/C=C/c2ccc(OC)c(O)c2)c(OC)c1 4.3%
CNc1ncnc2ccc(-c3cccc(OC)c3)cc12 -1.86%
C=CCc1ccc(O)c(OC)c1 -11.3% and -8.61% and -7.29%
CS(=O)(=O)Nc1cccc(-c2nc(NCc3cccs3)c3ccccc3n2)c1 5.39%
COc1ccc(NC(=O)N2CC3(CCN(C(=O)c4cccn4C)CC3)C2)cc1 0.998%
Cc1noc(C)c1C(=O)N1CCC2(CCCN(Cc3ccccc3)C2)CC1 -20%
OC[C@@H](O)[C@@H](O)[C@H](O)[C@H](O)CO -3.39%
CC(=O)N[C@@H](Cc1ccc(O)cc1)C(=O)O -15.3%
CCCCc1c(C)nc2c(OC)cccc2c1SCC(=O)O -22.7%
COCc1c(C(=O)NC2CCOC(C)(C)C2)cnn1-c1nccc(-c2cccs2)n1 (stereo not given) -6.92%
O=S1(=O)CCOC[C@H](CC2CCCCC2)N1Cc1ccccc1Br -28.3%
COc1cccc(-c2cncnc2-n2ccnc2)c1 -19.5%
CC1(C)CCC=[N+]1[O-] -21.1%
COC(=O)C1=C(C)NC(COC(N)=O)=C(C(=O)OC(C)C)C1c1cccc(Cl)c1Cl (stereo not given) -4.02%
Cc1ccccc1-c1cncnc1Nc1ccc(F)cc1 4.68%
CC(=O)OCC(=O)NCCCOc1cccc(CN2CCCCC2)c1 -4.99% and -32%
O=[N+]([O-])c1ccc(C=C2c3ccccc3-c3ccccc32)cc1 -12.5%
CS(=O)(=O)c1ccc(-c2nc(-c3ccc(F)cc3)c(-c3ccncc3)[nH]2)cc1 1.89%
CCn1cc(C(=O)O)c(=O)c2cc(F)c(N3CCNCC3)nc21 -9.85% and 1.46%
COC(=O)[C@H]1[C@H]2CC3c4[nH]c5ccccc5c4CCN3C[C@@H]2CC[C@@H]1O (stereo not given in full) 12.5%
COC(=O)c1c(OCc2cccnc2)cc(=O)n2c1CCN(C(=O)c1c3c(nn1C)CCCC3)CC2 -8.25%
